Results published in article PMC4336329 (PLoS ONE, 2015).
In all, about 310,000 compounds went through this assay and about 14,000 (4.5%) showed an effect of 50% or more. Effects have a minus sign here. The list shows a part of the results.
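Further: peak tail current of the secondary pulse compared with the same well before compound.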

Each compound was assayed against human ether-à-go-go-related gene (hERG) potassium channel (human, UniProt Q12809) (assay: primary screen, population patch clamp on CHO cells stably expressing hERG).
Chain of human ether-à-go-go-related gene (hERG) potassium channel (Q12809 whole entry, looked up): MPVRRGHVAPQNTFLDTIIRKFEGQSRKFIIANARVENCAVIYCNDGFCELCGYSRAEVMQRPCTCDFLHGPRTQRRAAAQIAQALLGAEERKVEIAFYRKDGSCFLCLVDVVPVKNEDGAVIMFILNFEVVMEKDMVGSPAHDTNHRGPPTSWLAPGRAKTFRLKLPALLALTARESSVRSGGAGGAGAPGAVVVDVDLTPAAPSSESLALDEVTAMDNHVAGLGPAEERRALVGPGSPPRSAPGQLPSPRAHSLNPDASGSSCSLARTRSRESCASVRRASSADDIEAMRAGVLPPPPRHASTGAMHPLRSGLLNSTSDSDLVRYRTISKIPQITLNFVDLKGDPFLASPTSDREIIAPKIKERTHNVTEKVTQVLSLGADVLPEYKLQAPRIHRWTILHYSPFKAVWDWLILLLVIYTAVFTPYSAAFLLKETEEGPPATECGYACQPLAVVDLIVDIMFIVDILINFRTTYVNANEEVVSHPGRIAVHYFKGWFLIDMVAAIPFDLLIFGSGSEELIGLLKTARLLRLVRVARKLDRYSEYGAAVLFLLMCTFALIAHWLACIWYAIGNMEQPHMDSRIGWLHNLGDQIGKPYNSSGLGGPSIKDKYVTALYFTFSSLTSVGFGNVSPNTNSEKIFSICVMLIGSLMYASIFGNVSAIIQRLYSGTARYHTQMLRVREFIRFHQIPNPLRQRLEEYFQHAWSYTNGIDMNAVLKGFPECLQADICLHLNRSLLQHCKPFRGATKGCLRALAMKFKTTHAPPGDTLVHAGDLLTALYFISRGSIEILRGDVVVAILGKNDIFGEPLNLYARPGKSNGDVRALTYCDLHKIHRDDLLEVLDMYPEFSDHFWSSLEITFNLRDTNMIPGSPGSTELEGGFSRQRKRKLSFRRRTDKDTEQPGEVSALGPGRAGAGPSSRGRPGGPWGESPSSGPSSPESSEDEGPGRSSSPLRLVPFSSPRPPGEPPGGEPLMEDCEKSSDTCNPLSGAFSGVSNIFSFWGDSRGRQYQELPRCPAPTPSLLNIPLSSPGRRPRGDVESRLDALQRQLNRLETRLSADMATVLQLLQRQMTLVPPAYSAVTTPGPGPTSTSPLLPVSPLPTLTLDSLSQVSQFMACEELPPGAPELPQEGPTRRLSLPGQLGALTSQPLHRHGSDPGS
`COc1cc(NC(=O)c2sc3ncn(CC(=O)N4CCCC(C)C4)c(=O)c3c2C)cc(OC)c1OC` (stereo not drawn) was tested, and the “hERG current change (%, negative = inhibition) at 10uM” value was 14.7%.
For `COc1ccc(NC(=O)c2ccc(NC(=O)c3ccco3)cc2)c(OC)c1`, the “hERG current change (%, negative = inhibition) at 10uM” value was 12.1%.
In the case of `O=c1ccc2c(-c3ccccc3)c3ccc(O)cc3oc-2c1`, the “hERG current change (%, negative = inhibition) at 10uM” value is reported as 22.6%.
With `CCOc1ccc(S(=O)(=O)Nc2nc3ccccc3nc2Cl)cc1` the “hERG current change (%, negative = inhibition) at 10uM” value was 0.455%.
For `CCOC(=O)N1CCN(C(=O)c2cc(S(=O)(=O)N3CCCC3)cn2C)CC1`, the “hERG current change (%, negative = inhibition) at 10uM” value was 0.122%.
`C/C=C(\C)C(=O)Nc1cccc(C2=NOC3(C2)C[C@@H](C(N)=O)N(C(=O)/C(C)=C/C)C3)c1` (stereo partly drawn) was tested, and the “hERG current change (%, negative = inhibition) at 10uM” value was 2.55%.
`Cc1cc(S(=O)(=O)N2CCN(c3ncccn3)CC2)ccc1-n1cnnn1` was tested, and the “hERG current change (%, negative = inhibition) at 10uM” value was 5.84%.
`Cn1nc(C(=O)NNC(=O)CCc2ccccc2Cl)c2ccccc2c1=O` was tested, and the “hERG current change (%, negative = inhibition) at 10uM” value was -53.9%.
With `O=C(CSc1nc2ccccc2c(=O)[nH]1)N1CCN(S(=O)(=O)c2ccccc2)CC1` the “hERG current change (%, negative = inhibition) at 10uM” value was 3.18%.
For `O=C(COC(=O)CSc1cc(Cl)ccc1Cl)NCc1ccc2c(c1)OCO2`, the “hERG current change (%, negative = inhibition) at 10uM” value was 13.5%.
`O=C1NC(=O)C(CCc2ccncc2)(c2ccccc2)C(=O)N1` was tested, and the “hERG current change (%, negative = inhibition) at 10uM” value was 5.76%.
With `CS(=O)(=O)c1nc(-c2ccccc2)c(-c2ccccc2)[nH]1` the “hERG current change (%, negative = inhibition) at 10uM” value was 5.1%.
For `CCOC(=O)C1/C(=N\O)CC(C)(O)C(C(=O)OCC)C1c1ccc(OC)c(OC)c1` (stereo not drawn), the “hERG current change (%, negative = inhibition) at 10uM” value was -13.5%.
For `CCCS(=O)(=O)n1nc(-c2ccc(Br)cc2)cc1N`, the “hERG current change (%, negative = inhibition) at 10uM” value was 10.8%.
With `Cc1ccc(C(C)C)c(OCC(=O)N/N=C/C2CCCCC2)c1` the “hERG current change (%, negative = inhibition) at 10uM” value was -4.21%.
With `Cc1ccc(C)c(OCCC(=O)OCC(=O)Nc2cc(S(=O)(=O)N3CCOCC3)ccc2C)c1` the “hERG current change (%, negative = inhibition) at 10uM” value was -20.9%.
In the case of `CCOC(=O)N1CCN(C(=O)CSc2ccc3nnc(CCNC(=O)c4ccc(OC)cc4)n3n2)CC1`, the “hERG current change (%, negative = inhibition) at 10uM” value is reported as -14.2%.
For `Cc1ccc(SCC(=O)OCC(=O)N(C)C2CCS(=O)(=O)C2)cc1C` (stereo not drawn), the “hERG current change (%, negative = inhibition) at 10uM” value was -11.5%.
For `O=C(c1cccc(S(=O)(=O)N2CCc3ccccc32)c1)N1CCc2ccccc2C1`, the “hERG current change (%, negative = inhibition) at 10uM” value was -13%.
For `CCc1ccc(N2CC(C(=O)Nc3cc(C)on3)CC2=O)cc1` (stereo not drawn), the “hERG current change (%, negative = inhibition) at 10uM” value was -9.26%.
With `COC(=O)c1cc(-c2ccc(OC)cc2)n[nH]1` the “hERG current change (%, negative = inhibition) at 10uM” value was 6.32%.
With `COc1cccc(CNc2ccc3[nH]c(=O)[nH]c3c2)c1OCc1ccccc1F` the “hERG current change (%, negative = inhibition) at 10uM” value was 10.8%.
`COc1cc(C(Nc2ccc(S(=O)(=O)NCC3CCCO3)cc2)C(=O)NC(C)(C)C)cc(OC)c1OC` (stereo not drawn) was tested, and the “hERG current change (%, negative = inhibition) at 10uM” value was 11%.
With `COc1ccc(C(c2c(C)[nH]n(-c3ccccc3)c2=O)c2c(C)[nH]n(-c3ccccc3)c2=O)cc1OC` the “hERG current change (%, negative = inhibition) at 10uM” value was -3.79%.
`CCOC(=O)C1C(=O)CC(C)(O)C(C(=O)OCC)C1c1ccc(F)cc1` (stereo not drawn) was tested, and the “hERG current change (%, negative = inhibition) at 10uM” value was 10.1%.
In the case of `COC(=O)C1=C(c2ccc(F)cc2OCc2ccccc2)C[C@@H]2CC[C@H]1N2C(=O)NC(C)C`, the “hERG current change (%, negative = inhibition) at 10uM” value is reported as -35.3%.
For `C=CCN1C(=O)C(O)(CC(=O)c2ccc(-n3cccc3)cc2)c2ccccc21` (stereo not drawn), the “hERG current change (%, negative = inhibition) at 10uM” value was -4.4%.
In the case of `CNC(=O)C(=O)Nc1c(C)cc(C)cc1C`, the “hERG current change (%, negative = inhibition) at 10uM” value is reported as 10.5%.
With `CCC(=O)N(CCC1(C(C)C)CCOC(C)(C)C1)C(C)c1cccs1` (stereo not drawn) the “hERG current change (%, negative = inhibition) at 10uM” value was 5.85%.
With `COc1cc(/C=C(\C#N)C(=O)NCc2cccs2)ccc1O` the “hERG current change (%, negative = inhibition) at 10uM” value was -0.725%.
With `CC(=O)Nc1ccc(S(=O)(=O)N2CCC(C(=O)NCc3ccncc3)CC2)cc1` the “hERG current change (%, negative = inhibition) at 10uM” value was 6.89%.
With `CN(C)CCn1c(=O)n(Cc2ccccc2)c(=O)c2c3c(sc21)CCCCC3` the “hERG current change (%, negative = inhibition) at 10uM” value was -3.31%.
In the case of `COc1cc(Br)cc(CN2CCN(C=O)CC2)c1O`, the “hERG current change (%, negative = inhibition) at 10uM” value is reported as -2.6%.
`Oc1ccc(/C(Cc2ccccn2)=N\Nc2ccccc2)c(O)c1` was tested, and the “hERG current change (%, negative = inhibition) at 10uM” value was 8.76%.
`COC(=O)c1ccc(OC)c(Cn2c(=O)n(C)c(=O)c3ccccc32)c1` was tested, and the “hERG current change (%, negative = inhibition) at 10uM” value was 9.94%.
With `COc1ccc(CN(C(=O)COc2ccccc2)c2ccccc2C(=O)O)cc1` the “hERG current change (%, negative = inhibition) at 10uM” value was 23.9%.
In the case of `Cc1oc(=O)c(NC(=O)c2ccccc2)cc1C(=O)c1ccccc1`, the “hERG current change (%, negative = inhibition) at 10uM” value is reported as 10.6%.
For `COc1cccc(CNC(=O)CSCc2cnn(-c3ccccc3)c2-n2cccc2)c1`, the “hERG current change (%, negative = inhibition) at 10uM” value was -20.1%.
With `CC(C(=O)N=Nc1c(O)[nH]c2ccccc12)n1cnc2ccccc2c1=O` (stereo not drawn) the “hERG current change (%, negative = inhibition) at 10uM” value was -19.2%.
For `CCOC(=O)CCCNC(=O)COC(=O)c1cccc(C)c1O`, the “hERG current change (%, negative = inhibition) at 10uM” value was 6.71%.
In the case of `O=C1CC(=O)N2N=C(c3ccc([N+](=O)[O-])cc3)SC2=N1`, the “hERG current change (%, negative = inhibition) at 10uM” value is reported as -1.2%.
For `CCc1noc(C)c1C(=O)Nc1cc(S(=O)(=O)N(CC)CC)ccc1N1CCOCC1`, the “hERG current change (%, negative = inhibition) at 10uM” value was -18.4%.
In the case of `O=C(Nc1ccccn1)C1CCN(S(=O)(=O)c2cccc3nonc23)CC1`, the “hERG current change (%, negative = inhibition) at 10uM” value is reported as -12.8%.
With `Cc1ccc(CCSc2ccc(F)cc2)cn1.O=C(O)C(=O)O` the “hERG current change (%, negative = inhibition) at 10uM” value was -3.91%.
For `Fc1ccc(-c2cc3nc(-c4ccccc4)cc(N4CCOCC4)n3n2)cc1`, the “hERG current change (%, negative = inhibition) at 10uM” value was 1.88%.
For `COCCNC(=O)[C@@]1(Cc2ccccc2)C=C[C@@H](C)N1C(C)=O`, the “hERG current change (%, negative = inhibition) at 10uM” value was 11.5%.
With `O=C(COc1ccc(Br)cc1)N1CCOCC1` the “hERG current change (%, negative = inhibition) at 10uM” value was -0.627%.
In the case of `O=C(C(=O)N1CCN(c2ccccc2Cl)CC1)c1c[nH]c2ccccc12`, the “hERG current change (%, negative = inhibition) at 10uM” value is reported as 9.59%.
For `CC1CCN(S(=O)(=O)c2ccc3c(c2)N(CC(=O)NCCCN2CCCC(C)C2)C(=O)CO3)CC1` (stereo not drawn), the “hERG current change (%, negative = inhibition) at 10uM” value was -8.35%.
With `CC(=O)NCC(=O)OCC(=O)c1ccc(C)cc1` the “hERG current change (%, negative = inhibition) at 10uM” value was 13.4%.
With `CC(C)N1CCC(=NNC(=O)c2ccc(Br)o2)CC1` the “hERG current change (%, negative = inhibition) at 10uM” value was 7.81%.
With `CCOc1ccc(OCc2ccc(C(=O)NCC3CCCO3)o2)cc1` (stereo not drawn) the “hERG current change (%, negative = inhibition) at 10uM” value was -7.61%.
`Cc1ccc2cc(CCNC(=O)c3cccc([N+](=O)[O-])c3)c(=O)[nH]c2c1` was tested, and the “hERG current change (%, negative = inhibition) at 10uM” value was -20.2%.
In the case of `COC(=O)CCc1nc2ccccc2nc1OC`, the “hERG current change (%, negative = inhibition) at 10uM” value is reported as 25.3%.
